89 sequences from the supplement of paper PMC11417369 can be followed below.

± gives the standard deviation of the averaged measurements. Some of the results follow.

The subject of the experiment is PfAP2-LT AP2 domain (GST-tagged). The experiment is described as follows: gcPBM binding intensity (ln(normalized median fluorescence intensity)); higher = stronger DNA binding. Summed up:
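Using an Agilent 4 × 180k array, primer-extended double-stranded 36-bp intergenic genomic probes and negative controls were exposed for 1 h to GST-fused P. falciparum DNA-binding domains expressed in E. coli. Binding was carried out in 1× PBS with 1% milk, 0.2 mg/ml BSA, 0.5% salmon testes DNA and 0.03% Triton X-100, and protein was detected with Alexa488 anti-GST antibody and a 488 nm scan. Binding intensity is the highest Masliner-normalised natural-log median intensity across replicate spots of either probe orientation.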
Regarding “TATTTATCATCATATTGTACATTATATATATAAAAT [XGTACX_site6675]”, the “gcPBM binding intensity (ln)” value was 8.63 ± 0.47.
Regarding “AATAAAAAAATGTCACGTACTTATTTTATTAAACCT [XGTACX_site3031]”, the “gcPBM binding intensity (ln)” value was found to be 8.59 ± 0.33.
The result for “AAGTATGTCGACTGTTGTACTTTTATCATTTATTAT [XGTACX_site1129]” reads 8.93 ± 0.45.
With “ATATACTATGATAATACATGCGATAATACATTTTTA [TGCATGCA_site387]” the figure was 8.71 ± 0.33.
With “ATCTGTCGACAGGACAGTACACAGTAGCCAGTAACT [XGTACX_site2001]” the figure was 8.95 ± 0.52; with “TTATATGCTCAATGTTGTACATGTAGATATATATAT [XGTACX_site8211]”, 8.82 ± 0.31; with “ATATATATATATAGTGCACACATATAAAATATATAT [CACACA_site8884]”, 9.24 ± 0.37.
Turning to “AAAAAAAACGAACACACACACATACAAAATCTATAT [CACACA_site6795]”, the “gcPBM binding intensity (ln)” value worked out at 10.1 ± 0.22.
The result for “TTAAAAGAATATAATGCACACATTATTTTATTTTAT [CACACA_site3772]” reads 8.67 ± 0.49; that for “TATACGAAATTGTGCACACATATATTTATGTATGTA [CACACA_site1509]”, 9.18 ± 0.34.
The result for “AATACATAATAACATGTACACACATTCTTCTATAAA [CACACA_site9344]” reads 9.06 ± 0.44; that for “TACCCACGTATATATATACACACTAATATACACCCA [CACACA_site9381]”, 9.13 ± 0.28; that for “ATTTATATATAATTTTGTACGAAAAAAATAAGGTAT [XGTACX_site3578]”, 8.62 ± 0.35.
With “TATATATTTATTAAATGTACATAACAAAAATGGTAT [XGTACX_site3577]” the figure was 8.69 ± 0.44.
For “AAATAAAGTAAAATATGTACATAAATTAAAACACAT [XGTACX_site8539]”, the “gcPBM binding intensity (ln)” value is 9.2 ± 0.42.
With “TGCATACATAAATGTATATATTAATATATATCATAT [GTGCAC_negctrl_site252]”, the “gcPBM binding intensity (ln)” value is 8.71 ± 0.39.
With “TTAAATGAAAAAATATGTACGTATAATAAGAAATAT [XGTACX_site6619]” the figure was 8.87 ± 0.43.
As to “GTATGAGTCGTAGAGTGTACTCTGGAGAAAACTACA [XGTACX_site4942]”, the “gcPBM binding intensity (ln)” value stood at 8.79 ± 0.5.
With “TATTTTTTCTTAAACACACACATATATATATAGAAT [CACACA_site2836]” the figure was 8.91 ± 0.39.
The result for “TTTTTTCTTAGTTATACATGCAAAATAAATAAATAA [TGCATGCA_site410]” reads 8.18 ± 0.43.
Turning to “TATAACGCTTGCAGCTGTACAAAAATAATCAAACTG [XGTACX_site2464]”, the “gcPBM binding intensity (ln)” value was 8.66 ± 0.43.
For “AATGCTATCATTAATGCACACATTTAAACTTAATAT [CACACA_site5878]”, the “gcPBM binding intensity (ln)” value was 8.91 ± 0.4.
The result for “TTTTTTTTTTTGTTCACACATATACTTTTATTTTGG [CACACA_site4250]” reads 8.81 ± 0.49.
The result for “GGAAACCTTTTTTTTACACACAATATATTAATACTT [CACACA_site1403]” reads 9.01 ± 0.47; that for “TTTGTTTTAAATATTATACACACGTAAAAGTAGAAT [CACACA_site214]”, 8.71 ± 0.3.
On to “CAAGAAAATGGACACACACACATATATATATATATA [CACACA_site6010]”, for which the “gcPBM binding intensity (ln)” value was 10.37 ± 0.092.
With “CAAATTTAAAAAAAATCACACACAGAAAAAAAAAAA [CACACA_site8728]” the figure was 9.06 ± 0.47; with “ATATAAATACGGTGTGCACACACATAATATATATAT [CACACA_site2271]”, 9.8 ± 0.33.
With “TACACCCTATTTTTATGTACTTATTTGATTTACACA [XGTACX_site8172]” the figure was 8.97 ± 0.52; with “TGTATACGCATATGTACACACATATATATGTATATG [CACACA_site3087]”, 9.14 ± 0.34.
With “GTGTAATTATCAGCATAAATATGGTACATACATAAA [CACACA_negctrl_site323]” the figure was 8.96 ± 0.49; with “AAAAGATTTATACATACACACATATTATAGTCACAT [CACACA_site7701]”, 9.21 ± 0.38.
As to “CAAAATATAGATGACACACACAAAAAAAGTATATTA [CACACA_site6848]”, the “gcPBM binding intensity (ln)” value came to 9.47 ± 0.63.
The result for “AAGCTTCCTTAATATACACACATATCTGAGTATATT [CACACA_site5939]” reads 9.11 ± 0.31.
The result for “AGATAAAAAAAGTACACACACACATATATATATATA [CACACA_site3072]” reads 10.02 ± 0.014; that for “CATTTACCCTTATTAACACACAAAATATAATACGCT [CACACA_site2565]”, 8.98 ± 0.49.
With “AAAATTATAATATATACACACATATATATATTAAAT [CACACA_site473]” the figure was 8.88 ± 0.35.
On to “ATAGAAAGTGACAATTGTACATACATATTATATATA [XGTACX_site4390]”, for which the “gcPBM binding intensity (ln)” value was 9.01 ± 0.54.
In the case of “TTCTTGGAATACAAGTGTACTTTATTATTATTATTA [XGTACX_site5997]”, the “gcPBM binding intensity (ln)” value is 8.65 ± 0.49.
With “AAAAAAAAAAAAAAAAAAAAATTTCAATTATATTGA [GTGCAC_negctrl_site642]” the figure was 8.49 ± 0.15.
With “TTTTTTTTTGCCTACTGTACTATTTTTGAGCTCACC [XGTACX_site7967]” the figure was 8.94 ± 0.58.
The result for “ACGTAAAATTATTATTGTACATGTAAATAATTTGGA [XGTACX_site8154]” reads 8.97 ± 0.5.
For “TATATTAAACATATATGTACATATTTTTTCTGAACA [XGTACX_site5390]”, the “gcPBM binding intensity (ln)” value was determined as 8.66 ± 0.4.
The result for “TATTGTTTTTTTGATTTTTTTTTTTTTTTTAATGAA [CACACA_negctrl_site824]” reads 8.26 ± 0.49.
With “AATATCAATGATGTTACATGCAAGAGAATCCACAAA [TGCATGCA_site678]” the figure was 8.96 ± 0.42; with “AATATTTTCTGTAATACTTCTTTTCAATTTATTTCG [CACACA_negctrl_site1390]”, 8.66 ± 0.53.
With “ACCAAATCATATATAGCACACAAATTCTTTATTATT [CACACA_site8911]” the figure was 8.94 ± 0.38; with “AATGTATAATTATAATGTACAAATAATATATAATAT [XGTACX_site5407]”, 9 ± 0.34; with “TAACTCCACAAATAATGTACATATATCACTATATTT [XGTACX_site4911]”, 8.93 ± 0.38.
For “TACATATGAAAATACACACATACATACATATATATA [CACACA_site1673]”, the “gcPBM binding intensity (ln)” value was 9.21 ± 0.34.
With “TATATAATATATATTTTATATTTGTAATAATTTTTT [GTGCAC_negctrl_site497]”, the “gcPBM binding intensity (ln)” value was determined as 8.34 ± 0.4.
The result for “ATTTACATTCACTTATGTACTTATATAATTTTATTT [XGTACX_site8150]” reads 9.05 ± 0.49; that for “GCTCAATTTTTGGGTACACACAAATGTATAAGAATA [CACACA_site7178]”, 8.86 ± 0.37.
With “TTTTTCTAATTATGCACACATATCAAAATATTCAAT [CACACA_site2749]” the figure was 8.79 ± 0.46; with “ATATATATAGAAATATGTACGAAAAAAATATCACAT [XGTACX_site746]”, 9.02 ± 0.35.
With “TATTTATTTTATATATGTACATAATATATTCTTATA [XGTACX_site1619]” the figure was 8.73 ± 0.46; with “TATATATATATATATGTGCACTGAAAGAATTATACA [GTGCAC_site9586]”, 9.58 ± 0.057; with “AATAAGCTCACGTGTCGTACATTTTTTAAAACAACC [XGTACX_site4707]”, 8.85 ± 0.42.
For “TCAAAAAAAAAAAAAAAAAAAAAAAAAAAAAAAAAA [CACACA_negctrl_site1753]”, the “gcPBM binding intensity (ln)” value was found to be 8.04 ± 0.22.
With “AAAATCAAAAAAACAAGTACAAATGTGGACTTTTTT [XGTACX_site5363]” the figure was 8.75 ± 0.45; with “TGTTCTATGGTTTGTAGTACTTTAATAAATATAAAT [XGTACX_site7823]”, 8.56 ± 0.4.
With “TGACCTGTTCAGGTAACACACATATAAACCCATACA [CACACA_site31]” the figure was 9.11 ± 0.35; with “ATGCTATAGGATCTTACACACATTTTTGTAAAAAAA [CACACA_site1868]”, 8.79 ± 0.35; with “TTTTTTTTTTTTTGGTGTACCATAGGTAAAATGATT [XGTACX_site8020]”, 8.43 ± 0.37.
The result for “ATTTATGGAAAAAGAACACACAATCAAACAAAAATA [CACACA_site3707]” reads 9.03 ± 0.47.
As for “ATATAAATGAATATATGTACATATATATATATATAT [XGTACX_site6361]”, the “gcPBM binding intensity (ln)” value is 9.71 ± 0.44.
With “GAAAAAAAAATATCTTGTACTTACATAACTATTGGT [XGTACX_site5326]” the figure was 8.63 ± 0.44.
With “TAAATTAAAAAACATAAACTATTGGAAACGCATTGA [CACACA_negctrl_site935]” the figure was 8.72 ± 0.43; with “AAAGGTTTATCTGATACACACATAAGTGATCAGGTT [CACACA_site6233]”, 8.83 ± 0.33; with “TATACATATGTATGCACACATACATACCCATATAAT [CACACA_site5842]”, 9.12 ± 0.33.
The result for “CTATATATAAAATATTGTACTTATTTTTATTACATC [XGTACX_site3963]” reads 8.72 ± 0.35; that for “TTTTCTCAATTTTGGTGTACTTTTTTCTTAACACAT [XGTACX_site8918]”, 8.94 ± 0.35; that for “TATTTAAAATATTAAATTTGTAAAGTTCGAGGGAAG [GTGCAC_negctrl_site337]”, 8.32 ± 0.38.
On to “ACACAATAAACATTATGTACATATAATGTTCTGTGT [XGTACX_site3381]”, for which the “gcPBM binding intensity (ln)” value amounted to 9.03 ± 0.45.
The result for “AATGATAATCTATTATGTACACATATATTCTTATGT [XGTACX_site4148]” reads 9.02 ± 0.53; that for “CACAGTGATATAAAAACACACATGAATTAAAATTTC [CACACA_site4999]”, 8.99 ± 0.47.
With “TATTTTTATCAATTCACACATAAATATATTTATATG [CACACA_site5547]”, the “gcPBM binding intensity (ln)” value is 8.64 ± 0.46.
With “CATACATACAGACACACACACATATTTATATTTATA [CACACA_site6172]” the figure was 9.9 ± 0.41; with “TCCCTTAATTTTGTGTGTACATATAATATATTTTTA [XGTACX_site2789]”, 9.11 ± 0.47.
The result for “GTTAATTATTAAATTTGTACTCATATATATTATATA [XGTACX_site6862]” reads 8.71 ± 0.53; that for “AAGAACTCATTAATAATGTAATATTTTATAATTTAG [CACACA_negctrl_site321]”, 8.34 ± 0.48; that for “ATTCATAAATATATTTGTACATATTATATATAAATA [XGTACX_site1907]”, 8.5 ± 0.44.
On to ATAATAAAACTCAAAGTGCATTAGAATAATTGTAAA, for which the “gcPBM binding intensity (ln)” value came to 8.7 ± 0.47.
The result for “AGCACCCACCAACACACACACACACCCACCCACCCA [CACACA_site8011]” reads 10.3 ± 0.11; that for “TAATATATAACGTGCACACACACATTTACGTATGAA [CACACA_site1832]”, 9.48 ± 0.28.
On to ACAATAAATATGTGGTTGCACTTATAATATATTTAT, for which the “gcPBM binding intensity (ln)” value was determined as 8.74 ± 0.38.
With “TATACATATTTCTATTGTACATAAACTAAATCTTCA [XGTACX_site28]” the figure was 8.46 ± 0.35; with “TTTTTATAATAAAAAAATATAACTATATTAAGCCAC [CACACA_negctrl_site555]”, 8.4 ± 0.39.
With “TACAATTGTAAAGGCGCACACATATATATATATATA [CACACA_site1392]” the figure was 10.3 ± 0.23.
